Experimental data as given in the supplement of paper PMC4967469.

Tests used:
Assay in all cases: Viability of human cancer cell lines after 72 h of drug (GDSC screen)
[1] = compound: Cn1cncc1[C@@](N)(c1ccc(Cl)cc1)c1ccc2c(c1)c(-c1cccc(Cl)c1)cc(=O)n2C [Tipifarnib]; details: top dose 16 µM; top dose inferred
Description: (§1)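 Human cancer cell lines in 384-well plates, medium with 10% serum, drug for 72 h over a 256-fold dose range (nine 2-fold or five 4-fold steps up to the top dose). Adherent lines were fixed and stained with the nucleic acid dye Syto60, suspension lines read with resazurin; signal relative to control wells, capped at 0 and 100%. One two-parameter sigmoid per drug and line, fitted in a mixed model over all curves with the slope shared within a line.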

[2] = compound: COc1ccccc1S(=O)(=O)Nc1ccc2c(c1)CN(C)C(=O)N2 [PFI-1]; details: top dose 10 µM; top dose inferred
Description: as §1

[3] = compound: COc1cc(C)c(Sc2cnc(NC(=O)c3ccc(CNC(C)C(C)(C)C)cc3)s2)cc1C(=O)N1CCN(C(C)=O)CC1 [BMS-509744]; details: top dose 10.24 µM; top dose inferred
Description: as §1

[4] = compound: CCN1CCN(Cc2ccc(NC(=O)c3ccc(C)c(Oc4ccnc5[nH]ccc45)c3)cc2C(F)(F)F)CC1 [NG-25]; details: top dose 10.24 µM; top dose inferred
Description: as §1

[5] = compound: CCc1cc(Nc2nccc(-c3c(-c4ccc(OC)c(C(=O)Nc5c(F)cccc5F)c4)nc4ccccn34)n2)c(OC)cc1N1CCC(N2CCN(S(C)(=O)=O)CC2)CC1 [GSK-1904529A]; details: top dose 1.024 µM; top dose inferred
Description: as §1

| Cell Line | AUC [1] | IC50 [1] | AUC [2] | IC50 [2] | AUC [3] | IC50 [3] | AUC [4] | IC50 [4] | AUC [5] | IC50 [5] |
| --- | --- | --- | --- | --- | --- | --- | --- | --- | --- | --- |
| Hs-445 (Hodgkin lymphoma, suspension) | 0.573 | 1.56 µM | 0.853 | 6.94 µM | 0.95 | > 10.2 µM | 0.83 | 5.78 µM | 0.984 | > 1.02 µM |
| IA-LM (large cell lung carcinoma, adherent) | 0.226 | 0.142 µM | 0.845 | 8.56 µM | 0.806 | 6.02 µM | 0.951 | > 10.2 µM | 0.981 | > 1.02 µM |
| IMR-5 (neuroblastoma, adherent) | 0.848 | 9.15 µM | 0.822 | 4.66 µM | 0.913 | > 10.2 µM | 0.8 | 4.06 µM | 0.992 | > 1.02 µM |
| IST-MEL1 (melanoma, adherent) | 0.612 | 2.16 µM | 0.939 | > 10 µM | 0.819 | 7.3 µM | 0.802 | 6.21 µM | 0.976 | > 1.02 µM |
| IST-MES1 (mesothelioma, adherent) | 0.779 | 6.59 µM | 0.756 | 3.44 µM | 0.85 | 7.82 µM | 0.831 | 6.58 µM | 0.982 | > 1.02 µM |
| IST-SL1 (small cell lung carcinoma, semi-adherent) | 0.862 | 14.4 µM | 0.836 | 6.93 µM | 0.956 | > 10.2 µM | 0.732 | 3.01 µM | 0.982 | > 1.02 µM |
| JAR (urogenital system, adherent) | 0.971 | > 16 µM | 0.891 | > 10 µM | 0.925 | > 10.2 µM | 0.974 | > 10.2 µM | 0.987 | > 1.02 µM |
| JJN-3 (haematopoietic neoplasm, suspension) | 0.783 | 5.49 µM | 0.808 | 4.07 µM | 0.947 | > 10.2 µM | 0.873 | 6.91 µM | 0.988 | > 1.02 µM |
| JM1 (B-cell lymphoma, suspension) | 0.765 | 5.06 µM | 0.832 | 5.17 µM | 0.901 | 9.92 µM | 0.813 | 4.59 µM | 0.99 | > 1.02 µM |
| JVM-2 (lymphoid neoplasm, suspension) | 0.883 | > 16 µM | 0.699 | 2.6 µM | 0.946 | > 10.2 µM | 0.78 | 5.27 µM | 0.981 | > 1.02 µM |
| JVM-3 (lymphoid neoplasm, suspension) | 0.966 | > 16 µM | 0.783 | 4.28 µM | 0.987 | > 10.2 µM | 0.905 | > 10.2 µM | 0.987 | > 1.02 µM |
| JiyoyeP-2003 (Burkitt lymphoma, suspension) | 0.735 | 4.22 µM | 0.88 | 8.17 µM | 0.972 | > 10.2 µM | 0.721 | 2.46 µM | 0.991 | > 1.02 µM |
| K5 (thyroid, adherent) | 0.821 | 8.73 µM | 0.85 | 7.07 µM | 0.969 | > 10.2 µM | 0.875 | 9.34 µM | 0.982 | > 1.02 µM |
| KALS-1 (glioma, adherent) | 0.854 | > 16 µM | 0.861 | > 10 µM | 0.848 | > 10.2 µM | 0.893 | > 10.2 µM | 0.976 | > 1.02 µM |
| KARPAS-45 (lymphoblastic leukaemia, suspension) | 0.719 | 3.67 µM | 0.823 | 4.64 µM | 0.869 | 6.87 µM | 0.517 | 0.708 µM | 0.992 | > 1.02 µM |
| KARPAS-299 (anaplastic large cell lymphoma, suspension) | 0.97 | > 16 µM | 0.912 | > 10 µM | 0.953 | > 10.2 µM | 0.878 | 7.42 µM | 0.992 | > 1.02 µM |
| KARPAS-422 (B-cell lymphoma, suspension) | 0.805 | 7.93 µM | 0.901 | > 10 µM | 0.912 | > 10.2 µM | 0.887 | > 10.2 µM | 0.988 | > 1.02 µM |
| KARPAS-620 (haematopoietic neoplasm, suspension) | 0.435 | 0.681 µM | 0.768 | 3.24 µM | 0.742 | 2.78 µM | 0.245 | 0.135 µM | 0.982 | > 1.02 µM |
| KCL-22 (chronic myeloid leukaemia, suspension) | 0.761 | 4.84 µM | 0.855 | 6.06 µM | 0.949 | > 10.2 µM | 0.026 | < 0.04 µM | 0.991 | > 1.02 µM |
| KE-37 (lymphoblastic leukaemia, suspension) | 0.653 | 2.37 µM | 0.915 | 8.47 µM | 0.963 | > 10.2 µM | 0.888 | 6.83 µM | 0.993 | > 1.02 µM |

| Cell Line | AUC [1] | IC50 [1] | AUC [2] | IC50 [2] | AUC [3] | IC50 [3] | AUC [4] | IC50 [4] | AUC [5] | IC50 [5] |
| --- | --- | --- | --- | --- | --- | --- | --- | --- | --- | --- |
| KELLY (neuroblastoma, adherent) | 0.808 | 7.4 µM | 0.908 | > 10 µM | 0.936 | > 10.2 µM | 0.77 | 3.55 µM | 0.983 | > 1.02 µM |
| KG-1 (acute myeloid leukaemia, suspension) | 0.683 | – | 0.771 | 3.44 µM | 0.967 | > 10.2 µM | 0.464 | 0.515 µM | 0.989 | > 1.02 µM |
| KGN (ovary, adherent) | 0.317 | 0.275 µM | 0.768 | 4.54 µM | 0.824 | 7.87 µM | 0.848 | 10.2 µM | 0.969 | > 1.02 µM |
| KINGS-1 (glioma, adherent) | 0.833 | > 16 µM | 0.939 | > 10 µM | 0.879 | > 10.2 µM | 0.823 | 9.3 µM | 0.964 | > 1.02 µM |
| KLE (endometrium, adherent) | 0.614 | 2.45 µM | 0.819 | > 10 µM | 0.935 | > 10.2 µM | 0.784 | 7.31 µM | 0.966 | > 1.02 µM |
| KM12 (large intestine, adherent) | 0.245 | 0.171 µM | 0.97 | > 10 µM | 0.678 | 2.11 µM | 0.923 | > 10.2 µM | 0.948 | > 1.02 µM |
| KM-H2 (Hodgkin lymphoma, suspension) | 0.827 | 7.86 µM | 0.993 | > 10 µM | 0.938 | > 10.2 µM | 0.848 | 5.93 µM | 0.992 | > 1.02 µM |
| KMOE-2 (acute myeloid leukaemia, suspension) | 0.733 | 4.21 µM | 0.774 | 3.5 µM | 0.953 | > 10.2 µM | 0.885 | 9.11 µM | 0.98 | > 1.02 µM |
| KNS-42 (glioma, adherent) | 0.718 | 4.75 µM | 0.874 | > 10 µM | 0.866 | > 10.2 µM | 0.875 | > 10.2 µM | 0.962 | > 1.02 µM |
| KNS-81-FD (glioma, adherent) | 0.712 | 5 µM | 0.904 | > 10 µM | 0.948 | > 10.2 µM | 0.877 | > 10.2 µM | 0.932 | > 1.02 µM |
| KOPN-8 (B-cell leukaemia, suspension) | 0.767 | 5.16 µM | 0.878 | 7.73 µM | 0.929 | > 10.2 µM | 0.756 | 3.06 µM | 0.99 | > 1.02 µM |
| KP-N-YN (neuroblastoma, adherent) | 0.963 | > 16 µM | 0.832 | 7.24 µM | 0.934 | > 10.2 µM | 0.986 | > 10.2 µM | 0.987 | > 1.02 µM |
| KS-1 (glioma, adherent) | 0.495 | 0.964 µM | 0.819 | 7.58 µM | 0.632 | 1.62 µM | 0.761 | 4.5 µM | 0.966 | > 1.02 µM |
| KU812 (chronic myeloid leukaemia, suspension) | 0.328 | 0.348 µM | 0.806 | 4.56 µM | 0.861 | 7.43 µM | 0.093 | < 0.04 µM | 0.988 | > 1.02 µM |
| KURAMOCHI (ovary, adherent) | 0.702 | 4.08 µM | 0.822 | 7.06 µM | 0.898 | > 10.2 µM | 0.897 | > 10.2 µM | 0.982 | > 1.02 µM |
| KY821 (leukaemia, suspension) | 0.979 | > 16 µM | 0.904 | > 10 µM | 0.918 | > 10.2 µM | 0.956 | > 10.2 µM | 0.992 | > 1.02 µM |
| L-363 (myeloma, suspension) | 0.849 | 9.65 µM | 0.683 | 1.87 µM | 0.814 | 4.65 µM | 0.877 | 7.9 µM | 0.983 | > 1.02 µM |
| L-428 (Hodgkin lymphoma, suspension) | 0.788 | 6.1 µM | 0.943 | > 10 µM | 0.973 | > 10.2 µM | 0.983 | > 10.2 µM | 0.993 | > 1.02 µM |
| L-540 (Hodgkin lymphoma, suspension) | 0.733 | 4.22 µM | 0.766 | 3.3 µM | 0.915 | > 10.2 µM | 0.869 | 7.72 µM | 0.99 | > 1.02 µM |
| L-1236 (Hodgkin lymphoma, suspension) | 0.92 | > 16 µM | 0.77 | 3.23 µM | 0.953 | > 10.2 µM | 0.923 | > 10.2 µM | 0.992 | > 1.02 µM |

A lower IC50 marks a more sensitive line; a limit (>, <) means that the fit lies beyond the doses tested. For AUC the same curve is integrated over the 256-fold range of doses and scaled to a fraction; values near 1 show little effect. Where the top dose is marked as inferred, it was derived from the fitted curves, not read from the paper.
